Results: PMC4336329 (PLoS ONE, 2015)
The whole screen tested about 310,000 compounds, of which about 14,000 (4.5%) showed an effect of 50% or more. The effect is printed as a negative number. Some of the results follow.

Target: human ether-à-go-go-related gene (hERG) potassium channel (human, UniProt Q12809)
Test: primary screen, population patch clamp on CHO cells stably expressing hERG
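Also: peak tail current of the secondary pulse compared with the same well before compound.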

Chain of human ether-à-go-go-related gene (hERG) potassium channel (Q12809 whole entry, looked up): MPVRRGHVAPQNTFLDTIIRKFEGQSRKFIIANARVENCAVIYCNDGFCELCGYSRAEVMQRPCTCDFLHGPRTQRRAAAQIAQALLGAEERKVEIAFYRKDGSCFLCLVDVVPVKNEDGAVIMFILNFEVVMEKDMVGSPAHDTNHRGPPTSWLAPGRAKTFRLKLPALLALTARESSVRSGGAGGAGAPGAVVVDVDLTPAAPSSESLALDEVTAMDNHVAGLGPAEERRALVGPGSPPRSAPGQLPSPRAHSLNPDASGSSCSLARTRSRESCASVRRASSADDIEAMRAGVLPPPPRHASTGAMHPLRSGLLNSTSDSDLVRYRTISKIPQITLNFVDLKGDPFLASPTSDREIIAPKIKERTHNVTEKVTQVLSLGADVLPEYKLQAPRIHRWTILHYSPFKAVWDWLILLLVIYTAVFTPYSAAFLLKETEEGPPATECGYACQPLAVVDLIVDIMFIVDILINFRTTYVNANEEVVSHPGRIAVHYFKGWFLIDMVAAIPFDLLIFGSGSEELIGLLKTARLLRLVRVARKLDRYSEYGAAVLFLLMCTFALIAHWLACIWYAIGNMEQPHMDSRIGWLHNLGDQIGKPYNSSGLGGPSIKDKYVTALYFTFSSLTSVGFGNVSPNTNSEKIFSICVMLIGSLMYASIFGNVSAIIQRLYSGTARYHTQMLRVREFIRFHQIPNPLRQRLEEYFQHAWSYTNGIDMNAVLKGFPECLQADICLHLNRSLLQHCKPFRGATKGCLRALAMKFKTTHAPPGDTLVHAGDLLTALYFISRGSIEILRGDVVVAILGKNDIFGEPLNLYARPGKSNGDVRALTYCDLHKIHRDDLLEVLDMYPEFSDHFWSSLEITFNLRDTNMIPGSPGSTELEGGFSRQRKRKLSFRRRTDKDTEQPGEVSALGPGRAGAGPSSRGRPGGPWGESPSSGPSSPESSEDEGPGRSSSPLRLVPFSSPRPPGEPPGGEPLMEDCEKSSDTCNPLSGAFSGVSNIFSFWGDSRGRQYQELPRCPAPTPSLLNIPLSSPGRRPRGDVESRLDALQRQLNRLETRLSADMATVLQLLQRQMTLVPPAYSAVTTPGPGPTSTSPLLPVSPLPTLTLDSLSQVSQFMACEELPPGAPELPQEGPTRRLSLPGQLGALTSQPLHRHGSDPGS

First: CC(=O)Nc1ccc(-c2csc(NC(=O)CC(NC(C)=O)c3ccccc3)n2)cc1 (stereo not shown)
Second: COc1ccc(NC(=O)CCCn2c(=O)c3sccc3n(Cc3ccccc3)c2=O)cc1
The “hERG current change (%, negative = inhibition) at 10uM” value of the first is higher: 22.9% for the first, -20.8% for the second.

Compared with `CCOC(=O)CN1C(=O)C(O)(CC(=O)c2ccc3c(c2)CCCC3)c2ccccc21` (stereo not shown), `COc1ccccc1CNC(=O)CN1C(=O)CSc2ccc(S(=O)(=O)N3CCCC3)cc21` is lower in “hERG current change (%, negative = inhibition) at 10uM” value: -6.23% for the first, -9.41% for the second.

Going from `Cc1ccccc1Oc1ccc(Oc2ccccc2C)nn1` to `O=C(O)c1c(-c2ccccc2)nnc2ccccc12`, the “hERG current change (%, negative = inhibition) at 10uM” value falls from 14.7% to 13.5%.

Compared with `CCCCSc1ncnc2[nH]ncc12`, `CCOc1cc(C(=O)Nn2cnnc2)cc(OCC)c1OCC` is higher in “hERG current change (%, negative = inhibition) at 10uM” value: -3.6% for the first, 13.8% for the second.

First: CC1CC(C)(C)CC2(C1)NC(=O)N(CC(=O)NCCc1ccc3c(c1)OCCO3)C2=O (stereo not shown)
Second: CC(CNC(=O)CCS(=O)(=O)c1ccc2c(c1)NC(=O)CO2)c1ccccc1 (stereo not shown)
The “hERG current change (%, negative = inhibition) at 10uM” value of the first is higher: 2.63% for the first, -6.68% for the second.

Compared with `Cc1nn(CC(=O)N2CCC3(CC2)OCCO3)c(=O)c2cc3ccccc3n12`, `Cc1nn(CC(=O)NCC2CCCO2)c(=O)c2ccccc12` (stereo not shown) is lower in “hERG current change (%, negative = inhibition) at 10uM” value: 9.83% for the first, 3.34% for the second.

Compared with `COc1cc2c3nnc(-c4ccc(F)cc4)c-3cn(Cc3ccc(C)cc3)c2cc1OC`, `COc1ccc(/C=C(/NC(=O)c2ccc(C)cc2)c2nc3ccccc3[nH]2)cc1OC` is lower in “hERG current change (%, negative = inhibition) at 10uM” value: 2.79% for the first, 2.27% for the second.

Going from `CC(C)(c1ccccc1)c1ccc(OCC(O)CN2CCCC2)cc1.Cl` (stereo not shown) to `Cc1cc(S(=O)(=O)N2CCCCC2)ccc1OCC(=O)Nc1ccccc1`, the “hERG current change (%, negative = inhibition) at 10uM” value rises from -60.3% to 9.09%.

First: NC(=O)C1CCN(C(=O)CCCCCn2c(=O)[nH]c3ccsc3c2=O)CC1
Second: COCCn1c(=O)[nH]c2cc(C(=O)N3CCN(c4ccccc4)CC3)ccc2c1=O
The “hERG current change (%, negative = inhibition) at 10uM” value of the first is lower: 0.397% for the first, 14.5% for the second.

Going from `Cc1ccc(CNC(=O)C2CCC(=O)N(Cc3cccc(C(F)(F)F)c3)C2)o1` (stereo not shown) to `O=C(NNS(=O)(=O)c1ccc(F)cc1)C1CCN(Cc2cccc(F)c2)CC1`, the “hERG current change (%, negative = inhibition) at 10uM” value rises from -42.6% to -13.7%.

Compared with `COc1ccc(N2C(=O)CC(N3CCN(c4nc5ccccc5s4)CC3)C2=O)cc1` (stereo not shown), `COc1ccc(-n2c(=O)c3ccccc3n(CC(=O)NC3CCCCC3)c2=O)cc1` is higher in “hERG current change (%, negative = inhibition) at 10uM” value: -30.9% for the first, 7.98% for the second.

Compared with `Cc1ccc(C(=O)Cn2c(=N)n(CCN3CCOCC3)c3ccccc32)cc1.[Br-]`, `Cc1ccccc1CSCc1ccc(C(=O)NCCCN2CCOCC2)o1` is higher in “hERG current change (%, negative = inhibition) at 10uM” value: -59.9% for the first, -47.6% for the second.

First: CC(C)Sc1nc2c(c(=O)n1-c1ccc(F)cc1)SCC2
Second: CCCNC(=O)c1onc(CSc2ccc(F)cc2)c1C(=O)NCCC
The “hERG current change (%, negative = inhibition) at 10uM” value of the first is higher: 16% for the first, 5.35% for the second.

Going from `CCS(=O)(=O)N1Cc2ccccc2CC1C(=O)Nc1ccc(OC)cc1OC` (stereo not shown) to `CCN(CC)S(=O)(=O)c1ccc(C)c(NC(=O)CN2CCN(Cc3ccccc3)CC2)c1.Cl`, the “hERG current change (%, negative = inhibition) at 10uM” value falls from -6.9% to -69.1%.

Going from `Cc1ccccc1Nc1nnc(SCC(=O)Nc2ccccc2[N+](=O)[O-])s1` to `Cc1ccccc1NC(=O)CSc1nc2ccccc2c(=O)n1C`, the “hERG current change (%, negative = inhibition) at 10uM” value falls from 3.5% to 1.39%.

First: COC(=O)c1sc(N/N=C/c2ccc(C(C)C)cc2)nc1C
Second: CCOC(=O)C1C(=O)NC(c2ccccc2)=NC1c1ccc(C(C)C)cc1 (stereo not shown)
The “hERG current change (%, negative = inhibition) at 10uM” value of the first is higher: 15.1% for the first, -6.13% for the second.

Going from `COc1cc(C(=O)Nc2cccc(C)n2)ccc1OCC(=O)N1CCOCC1` to `O=C(Nc1ccon1)c1nc[nH]c1C(=O)N1CCc2ccccc2C1`, the “hERG current change (%, negative = inhibition) at 10uM” value rises from 3.2% to 22.4%.

Compared with `CC(C)(C)C1CCc2c(sc(NC(=O)C3CC=CCC3C(=O)O)c2C#N)C1` (stereo not shown), `CC(C)(C)c1cc(NC(=O)C2CCCO2)no1` (stereo not shown) is higher in “hERG current change (%, negative = inhibition) at 10uM” value: 6.43% for the first, 11.6% for the second.

Compared with `O=C(NC1CCCCC1)c1ccc(S(=O)(=O)c2ccccc2Cl)c([N+](=O)[O-])c1`, `O=C(NC1CCCc2ccccc21)c1ccc([N+](=O)[O-])cc1` (stereo not shown) is lower in “hERG current change (%, negative = inhibition) at 10uM” value: 1.94% for the first, -53.4% for the second.

Going from `CCCCCCCCCCCCOC(=O)C[N+](C)(C)C.[Cl-]` to `COc1cccc(CNC(=O)CCCCCNC(=O)N2CCn3c2nc2ccccc23)c1`, the “hERG current change (%, negative = inhibition) at 10uM” value rises from -38% to -8.26%.

Compared with `CCOC(=O)C1=C(c2ccccc2)NC(SCC(=O)Nc2ccccc2C)=C(C#N)C1c1ccco1` (stereo not shown), `COc1cc(NC(=O)c2ccco2)c(OC)cc1NC(=O)CSc1ncc(-c2ccc(F)cc2)[nH]1` is higher in “hERG current change (%, negative = inhibition) at 10uM” value: -10.9% for the first, 2.14% for the second.

Going from `Nc1c(C(=O)NCCc2ccccc2)nnn1Cc1ccc(Cl)cc1` to `O=C(CN1CCN(C/C=C/c2ccccc2)CC1)NCc1ccc(Cl)cc1`, the “hERG current change (%, negative = inhibition) at 10uM” value falls from 7.74% to -78%.

First: O=C(Cc1ccsc1)Nc1ccc2c(c1)OCO2
Second: Cc1nn(C)cc1/C=N/NC(=O)c1ccc2c(c1)OCO2
The “hERG current change (%, negative = inhibition) at 10uM” value of the first is higher: 2.66% for the first, -1.33% for the second.

Compared with `CC(NC(=O)C12CC3CC(CC(C3)C1)C2)C(=O)NCCN(C)C.Cl` (stereo not shown), `O=C(NC12CC3CC(CC(C3)C1)C2)c1c(Cl)cccc1Cl` is lower in “hERG current change (%, negative = inhibition) at 10uM” value: 7.29% for the first, -14% for the second.

First: CCOc1ccc(C2CC(c3ccc(F)cc3)n3ncnc3N2)cc1 (stereo not shown)
Second: c1ccc(Oc2ccc(-c3ccn[nH]3)cc2)cc1
The “hERG current change (%, negative = inhibition) at 10uM” value of the first is higher: -0.682% for the first, -18.5% for the second.

First: Cc1[nH]n(C)c(=O)c1C(=O)c1c(-c2c(Cl)cccc2Cl)noc1C
Second: Cc1cc(NC(=O)CSCC(=O)Nc2nc3c(C)cccc3s2)no1
The “hERG current change (%, negative = inhibition) at 10uM” value of the first is lower: -17.7% for the first, 3.02% for the second.

Compared with `COc1ccccc1NC(NC(=O)c1cccnc1)C(Cl)(Cl)Cl` (stereo not shown), `O=C(Nc1cccc(Cl)c1)Nc1ccc(Cl)cn1` is higher in “hERG current change (%, negative = inhibition) at 10uM” value: -27.8% for the first, 4.88% for the second.

First: Cc1ccc(-n2nc3c(N4CCC(C(=O)NCCc5ccccc5C)CC4)nnc(C)c3c2C)cc1
Second: Cc1ccc(-c2nnc(SCC(=O)N/N=C/c3ccccc3C(=O)O)n2C2CCCCC2)cc1
The “hERG current change (%, negative = inhibition) at 10uM” value of the first is higher: 11.8% for the first, 11.1% for the second.

Compared with `N#CC1(NC(=O)CSc2ccccn2)CCCCC1`, `CC1(C)CC(=O)C(C=NCc2ccccn2)=C(O)C1` is higher in “hERG current change (%, negative = inhibition) at 10uM” value: 2.94% for the first, 3.95% for the second.

Compared with `CC(C)Oc1cc(N)c(Cl)cc1Cl`, `COc1ccc(C(O)P(=O)(OC(C)C)OC(C)C)cc1OC` (stereo not shown) is lower in “hERG current change (%, negative = inhibition) at 10uM” value: 17.3% for the first, -0.491% for the second.

Going from `O=C(NCCc1csc(-c2cccnc2)n1)c1ccc(Br)o1` to `O=C(Cc1ccccc1[N+](=O)[O-])NCc1ccncc1`, the “hERG current change (%, negative = inhibition) at 10uM” value rises from -10.9% to 6.57%.

Going from `Cc1cc[n+](CC(=O)c2ccccc2)c2ccccc12.[Br-]` to `O=C(NCCc1c[nH]c2ccccc12)Nc1cccc2ccccc12`, the “hERG current change (%, negative = inhibition) at 10uM” value rises from -8.1% to -2.66%.

Going from `CCc1nn(C(C)C(=O)N2CCN(c3ccc(OC)cc3)CC2)c(=O)c2cc3occc3n12` (stereo not shown) to `CC(=O)OC1(c2ccc(C)cc2)CN2CCC1c1ccccc12.Cl` (stereo not shown), the “hERG current change (%, negative = inhibition) at 10uM” value rises from -28.9% to -4.93%.

Going from `COc1cc(C(=O)Nc2nnc(C3=COCCO3)o2)cc(OC)c1OC` to `CCc1cc(=O)oc2cc(C)cc(OC(C)C(=O)NC3CC(C)(C)NC(C)(C)C3)c12` (stereo not shown), the “hERG current change (%, negative = inhibition) at 10uM” value falls from 21.8% to 13.1%.

Going from `O=S1(=O)CCOCCCN1Cc1ccccc1` to `O=C(NCCN1CCN(Cc2ccccc2)CC1)C1CC(=O)N(C2CCCC2)C1` (stereo not shown), the “hERG current change (%, negative = inhibition) at 10uM” value rises from -0.196% to 10%.

Compared with `CC(=O)c1cccc(NC(=O)c2ccco2)c1`, `CC(=O)Nc1cc(C(=O)N(C)Cc2ccco2)ccc1Sc1ccc(Cl)cc1` is lower in “hERG current change (%, negative = inhibition) at 10uM” value: 7.09% for the first, -66.7% for the second.

First: COC(=O)Cn1c(=NC(=O)C(C)(C)C)sc2c(C)cc(C)cc21
Second: Cc1ccc(NC(=O)CNC(=O)c2cccs2)nc1
The “hERG current change (%, negative = inhibition) at 10uM” value of the first is lower: -3.64% for the first, 12.6% for the second.

Compared with `O=C(CCCn1c(SCc2cc(=O)n3cc(Cl)ccc3n2)nc2ccccc2c1=O)NCC1CCCO1` (stereo not shown), `COc1cccc(N(C(=O)c2csnn2)C(C(=O)NC2CCCC2)c2ccccc2)c1` (stereo not shown) is higher in “hERG current change (%, negative = inhibition) at 10uM” value: -53.7% for the first, -0.366% for the second.

Compared with `COc1ccc2nc(-c3ccc(N)cc3)[nH]c2c1`, `CN(C)S(=O)(=O)c1cccc(NC(=O)COC(=O)c2cc(=O)c3ccccc3o2)c1` is higher in “hERG current change (%, negative = inhibition) at 10uM” value: 3.97% for the first, 11.3% for the second.

Going from `CCN(CC)c1ccc(/C=N/NC(=O)CN2CCCc3ccccc32)cc1` to `CCN(CC)CC(=O)Nc1ccc([N+](=O)[O-])cc1`, the “hERG current change (%, negative = inhibition) at 10uM” value falls from -9.07% to -47.5%.

Going from `Cc1cccc(CCNS(=O)(=O)c2ccc3c(c2)CCN3C(=O)CCC(=O)O)c1` to `O=C(O)CCC(=O)Nc1ccc2c(c1)Cc1cc(NC(=O)CCC(=O)O)ccc1-2`, the “hERG current change (%, negative = inhibition) at 10uM” value falls from 26.1% to 12.5%.

Going from `CNC(=O)C(=O)NCCc1ccc(Cl)cc1` to `CC(=O)c1sccc1NC(=O)CC(C)(C)CC(=O)O`, the “hERG current change (%, negative = inhibition) at 10uM” value falls from 12.5% to 4.84%.

Going from `O=C(NCC(c1cccs1)N1CCOCC1)C1CCN(S(=O)(=O)c2c(Cl)cccc2Cl)CC1` (stereo not shown) to `Cc1cccc(NS(=O)(=O)c2ccc(C(=O)NCC(c3ccco3)N(C)C)cc2)c1C` (stereo not shown), the “hERG current change (%, negative = inhibition) at 10uM” value rises from -27.3% to -20.3%.

First: Cc1noc(C)c1COc1ccc(C(=O)OCC(=O)NC23CC4CC(CC(C4)C2)C3)cc1
Second: Cn1c(O)c(/C=C/C=Nc2ccccc2)c(=O)n(C)c1=O
The “hERG current change (%, negative = inhibition) at 10uM” value of the first is higher: 19.4% for the first, 14.1% for the second.
